Test results published in paper PMC12021056, “MISP Suppresses Ferroptosis via MST1/2 Kinases to Facilitate YAP Activation in Non‐Small Cell Lung Cancer” (Advanced Science, 2025).
Where a chain is given by its changes, count along the chain named. Names may count otherwise. Results are given in words; binding and its absence hold for the method and conditions named. In cells and extracts the contact can be indirect. Some entries that bind do so weakly or less than the wild type. For part of these data: Where a sequence is shown, tags or fusion partners need not be part of it. Blank lines part the entries; values can stand above or below the binder they belong to.

Legend:
[1] = molecular target: T1, mammalian STE20-like protein kinase 1 (MST1), endogenous in PC-9 cells (human (endogenous in PC-9)) (UniProt Q13043); test: co-IP; endogenous proteins, PC-9 lysate; immunoprecipitation with IgG control, MST1 or MST2 antibodies; immunoblot for MISP
T1 sequence: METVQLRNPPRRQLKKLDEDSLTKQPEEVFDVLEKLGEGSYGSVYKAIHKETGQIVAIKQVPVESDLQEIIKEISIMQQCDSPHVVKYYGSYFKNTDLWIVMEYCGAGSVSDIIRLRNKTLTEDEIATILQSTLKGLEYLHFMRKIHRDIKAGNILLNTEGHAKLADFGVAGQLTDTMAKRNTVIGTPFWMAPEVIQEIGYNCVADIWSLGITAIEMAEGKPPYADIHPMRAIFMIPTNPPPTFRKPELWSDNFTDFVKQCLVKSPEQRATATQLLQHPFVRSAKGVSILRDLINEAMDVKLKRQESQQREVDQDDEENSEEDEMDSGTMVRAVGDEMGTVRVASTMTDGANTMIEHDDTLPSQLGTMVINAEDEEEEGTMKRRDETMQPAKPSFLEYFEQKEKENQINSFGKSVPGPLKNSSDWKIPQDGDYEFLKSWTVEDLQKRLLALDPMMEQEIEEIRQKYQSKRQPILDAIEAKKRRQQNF

[2] = molecular target: T2, mammalian STE20-like protein kinase 2 (MST2), endogenous in PC-9 cells (human (endogenous in PC-9)) (UniProt Q13188); test: as above
T2 sequence: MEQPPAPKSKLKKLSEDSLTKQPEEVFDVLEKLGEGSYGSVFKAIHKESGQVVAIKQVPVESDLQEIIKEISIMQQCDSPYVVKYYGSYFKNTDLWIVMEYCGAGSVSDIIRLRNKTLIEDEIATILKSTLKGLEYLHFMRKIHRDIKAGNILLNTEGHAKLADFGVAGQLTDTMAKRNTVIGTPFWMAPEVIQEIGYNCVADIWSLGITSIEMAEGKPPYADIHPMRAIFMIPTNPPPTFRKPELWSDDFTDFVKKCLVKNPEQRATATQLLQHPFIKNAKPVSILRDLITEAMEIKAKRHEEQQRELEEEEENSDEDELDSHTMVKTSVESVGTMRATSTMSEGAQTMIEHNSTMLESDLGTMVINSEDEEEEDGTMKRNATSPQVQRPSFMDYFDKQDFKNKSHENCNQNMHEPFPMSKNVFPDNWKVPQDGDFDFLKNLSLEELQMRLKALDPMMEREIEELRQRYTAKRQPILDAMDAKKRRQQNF

[3] = molecular target: T3, HA-MST1 expressed in 293T cells (UniProt Q13043); test: co-IP; 293T cells transfected with MISP-Flag (wild type or mutant) and HA-MST1 or MST2 for 24 h, lysed, immunoprecipitation with tag antibodies, immunoblot
T3 sequence: T1 sequence

[4] = molecular target: T4, MST2 expressed in 293T cells (UniProt Q13188); test: as above
T4 sequence: T2 sequence

- binding [1]: binds
- binding [2]: binds
B1: Mitotic Spindle Positioning (MISP), endogenous in PC-9 cells (protein, UniProt Q8IVT2 1-679)
chain: MDRVTRYPILGIPQAHRGTGLVLDGDTSYTYHLVCMGPEASGWGQDEPQTWPTDHRAQQGVQRQGVSYSVHAYTGQPSPRGLHSENREDEGWQVYRLGARDAHQGRPTWALRPEDGEDKEMKTYRLDAGDADPRRLCDLERERWAVIQGQAVRKSSTVATLQGTPDHGDPRTPGPPRSTPLEENVVDREQIDFLAARQQFLSLEQANKGAPHSSPARGTPAGTTPGASQAPKAFNKPHLANGHVVPIKPQVKGVVREENKVRAVPTWASVQVVDDPGSLASVESPGTPKETPIEREIRLAQEREADLREQRGLRQATDHQELVEIPTRPLLTKLSLITAPRRERGRPSLYVQRDIVQETQREEDHRREGLHVGRASTPDWVSEGPQPGLRRALSSDSILSPAPDARAADPAPEVRKVNRIPPDAYQPYLSPGTPQLEFSAFGAFGKPSSLSTAEAKAATSPKATMSPRHLSESSGKPLSTKQEASKPPRGCPQANRGVVRWEYFRLRPLRFRAPDEPQQAQVPHVWGWEVAGAPALRLQKSQSSDLLERERESVLRREQEVAEERRNALFPEVFSPTPDENSDQNSRSSSQASGITGSYSVSESPFFSPIHLHSNVAWTVEDPVDSAPPGQRKKEQWYAGINPSDGINSEVLEAIRVTRHKNAMAERWESRIYASEEDD

- binding [3]: no binding
- binding [4]: no binding
B2: MISP R2A mutant (R390/391A) (protein, UniProt Q8IVT2 1-679)
chain: B1 chain with R390A, R391A

- binding [3]: binds
- binding [4]: binds
B3: MISP-Flag expressed in 293T cells (protein, UniProt Q8IVT2 1-679)
chain: B1 chain
